Source: PubChem BioAssay AID1347073 (National Center for Advancing Translational Sciences (NCATS), 2019)
Screen size: about 45,000 compounds; about 200 (0.44%) were called active. Not shown: some 7% with an inconclusive outcome. Calls follow the shape of the dose curve; as a rule, active = well fitted activation curve with a large enough effect; inconclusive = small, poorly fitted or top-dose-only effect; inactive = no such curve, though single readings can be large or run the other way. The list shows a part of the results.

assay: qHTS of TDP-43 Inhibitors: NCGC Sytravon Library Screen; settings: yeast TDP-43 toxicity rescue, BacTiter-Glo growth, 24 h; series mostly up to 46.1 µM; growth rescue (activation): at the top concentration; also: nearly all actives have a fitted effect of over 55% in size; as to growth rescue (activation): 0% is about no effect
Procedure, shortened: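 TDP-43-expressing yeast, pregrown in raffinose, seeded at OD600 0.02 in galactose medium with compound for 24 hr at 30 deg C. Growth read by BacTiter-Glo luminescence, so rescue of toxicity appears as activation.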
Potency is read from the fitted curve at half-maximal effect.

SMILES | growth rescue (activation) | Potency
O=C(Nc1ccccc1)/C(=C/c1ccc(F)cc1)NC(=O)c1ccco1 | inactive: -1.85% | –
Cc1onc(-c2ccccc2)c1C(=O)NCC(=O)Nc1cc(Cl)ccc1Cl | inactive: 32.6% | –
COc1ccc(-c2coc3c(C(=O)NCc4cccs4)cccc23)c(C)c1 | inactive: 12.2% | –
CC1(C(=O)NCCC(F)(F)F)Cc2c(-c3cccc(C(N)=O)c3)ccnc2O1 (stereo unspecified) | inactive: -16.1% | –
O=C(CN(Cc1ccccc1)C(=O)CCC(=O)Nc1nccs1)NCc1ccc(F)cc1 | inactive: -10.9% | –
O=C(CCc1ccccc1)NCC1(c2ccccc2)CCCC1 | inactive: 11.2% | –
CCN1CCN(CC(=O)Nc2cc(S(=O)(=O)N(CC)c3ccccc3)ccc2Cl)CC1 | inactive: -17.7% | –
O=C1NC(=O)C2(CCCCCCCCCCC2)N1 | inactive: 10.1% | –
CCCn1c(SCC(=O)NC2CC2)nnc1-c1ccccn1 | inactive: -4.65% | –
CCOc1ccc(OCCCC(=O)N2CCN(S(=O)(=O)c3ccccc3C#N)CC2)cc1 | inactive: 28.7% | –
CC1Cc2ccccc2N1S(=O)(=O)c1cccc(C(=O)OCC(=O)NCc2ccco2)c1 (stereo unspecified) | inactive: 38.1% | –
O=C(Nc1ccc(S(=O)(=O)Nc2ncccn2)cc1)C1COc2ccccc2O1 (stereo unspecified) | inactive: 6.61% | –
Cc1cccc(N2CCN(S(=O)(=O)c3ccc4c(c3)OCCO4)CC2)c1C | inactive: 13.1% | –
COC(=O)c1ccc(NC(=O)C(=O)N2CCN(C(=S)Nc3ccccc3OC)CC2)cc1 | inactive: -3.98% | –
CC(C)C(C(=O)NCc1ccco1)N(Cc1ccco1)C(=O)CNS(=O)(=O)c1ccc(F)cc1 (stereo unspecified) | inactive: 14.7% | –
CC1CC1C(=O)Nc1nc(-c2cccs2)c(-c2cccs2)s1 (stereo unspecified) | – | active: 11.2 µM
COc1ccc(C2CCCN2C(=S)Nc2cccc(C)c2C)cc1OC (stereo unspecified) | inactive: 13% | –
CCC(CC)C(=O)N(C)c1c(C)nc2c(OCCC3CCCCC3)cccn12 | inactive: 14.9% | –
CC(=O)c1cccc(N(CC(=O)NC2CCCCC2)C(=O)CCC(=O)Nc2nc(C)cs2)c1 | inactive: -7.67% | –
CC(C)(C)c1ccc(CCC(CC(=O)O)CC(=O)O)cc1 | inactive: 24.6% | –
Cc1nc2ccc(F)cc2cc1C(=O)Nc1cccc(Cl)c1C | inactive: 0.867% | –
CC(C)Cc1c(O)nc(SCC(=O)N2CCCCCC2)[nH]c1=O | inactive: 8.91% | –

SMILES | growth rescue (activation) | Potency
CN1CCCN(C(=O)CC2(CC(=O)O)CCCC2)CC1 | inactive: -12.2% | –
CN1CCOC(=O)/C1=N/Nc1cc(Cl)ccc1Cl | inactive: 13.2% | –
Cc1cccc(-n2c(SCc3ccc([N+](=O)[O-])cc3)nnc2-c2c[nH]c3ccccc23)c1 | inactive: -1.51% | –
Cc1cc(C)c2nc(Cl)c(Cl)nc2c1 | inactive: 5.72% | –
CC(=O)NC(Nc1nc2c(s1)CCCC2)(C(F)(F)F)C(F)(F)F | inactive: -8.56% | –
O=C(COC(=O)Cn1c(C(F)(F)F)nc2ccccc21)Nc1ccc2c(c1)OCCO2 | inactive: 0.167% | –
O=C(Nc1ccccc1Cl)c1ccc(COc2ccc3c(c2)CCC3)cc1 | inactive: 11.9% | –
O=C(NCc1ccc2c(c1)OCO2)c1cccnc1 | inactive: 23.4% | –
COc1ccc(-c2cc(C(=O)N3CCCCCC3)no2)cc1 | inactive: 26.8% | –
O=S(=O)(NCc1ccc(Cl)cc1)NCc1ccccc1F | inactive: 6.32% | –
Cc1ccc2c(CN3CCN(S(=O)(=O)/C=C/c4ccccc4)CC3)cc(=O)oc2c1 | inactive: 18.1% | –
Cc1nc2cc(NS(=O)(=O)c3ccc(Br)cc3)ccc2n1C | inactive: -5.4% | –
CC(=O)c1cc2c(=O)c3cc(C)ccc3oc2nc1C | inactive: -6.33% | –
NC(=O)c1nsc(C(=O)N(CC(=O)NC2CCCC2)Cc2ccc3c(c2)OCO3)c1N | inactive: -17.7% | –
CCC(C)NC(=O)c1cc(-c2cccs2)nc2ccccc12 (stereo unspecified) | inactive: 4.85% | –
NCC(O)CN1CCN(Cc2ccccc2)CC1 (stereo unspecified) | inactive: -13.9% | –
COc1ccc(NS(=O)(=O)c2ccc(N3CCOCC3)c(NC(=O)c3ccccc3Br)c2)cc1 | inactive: 21% | –
O=C(CCCCC(=O)NC1CCCC1)NC1CCCC1 | inactive: 18.7% | –
C/C(=N\NC(=O)c1ccoc1C)c1ccccc1O | inactive: 6.8% | –
COc1ccccc1Cc1nnc(NC(=O)C2CCN(C(=O)c3ccco3)CC2)s1 | inactive: -2.21% | –
Cc1ccc(C(=O)Nc2ccccc2[N+](=O)[O-])cc1S(=O)(=O)N1CCOCC1 | inactive: 22.1% | –
CCN1/C(=c2/s/c(=C3/C(=O)N(c4ccccc4)N=C3C)n(CC)c2=O)C=Cc2ccccc21 | inactive: 0.579% | –

SMILES | growth rescue (activation) | Potency
CCOC(=O)N1CCN(C(=O)c2oc3ccc(S(=O)(=O)N(CC)CC)cc3c2C)CC1 | inactive: 12.6% | –
Cc1ccccc1CC1(CO)CCCN(Cc2c(C)nn(C)c2Cl)C1 (stereo unspecified) | inactive: -5.16% | –
C=CCNC(=O)C1CCN(c2cc(C)nc(-c3ccccc3)n2)CC1 | inactive: -6.96% | –
C[C@H](NC(=O)c1ccccc1Cl)C(=O)Nc1ccccc1F | inactive: 12.5% | –
COc1ccc(S(=O)(=O)N2CCN(C/C=C/c3ccccc3)CC2)cc1F | inactive: -3.31% | –
COc1ccccc1NC(=O)c1ccc2c(c1)N(CC(=O)NC(C)(C)C)C(=O)C(C)(C)O2 | inactive: 7.44% | –
COc1ccc(OC)c(NC(=O)COC(=O)C2CCCCC2)c1 | inactive: 11.6% | –
CCOc1ncccc1C(=O)N=c1sccn1C | inactive: -23.6% | –
Cc1cc(C)cc(NC(=O)C2CCCN(c3ncccn3)C2)c1 (stereo unspecified) | inactive: 26.5% | –
O=C(O)c1cn(-c2ccc(N3CCCC3)c(F)c2)c2c(F)c(F)c(F)cc2c1=O | inactive: -23.1% | –
Cc1ccc(C(=O)C2CCN(CC(=O)NC3CCCC3)CC2)cc1 | inactive: 6.38% | –
CCN(CC)S(=O)(=O)c1ccc(NC(=O)COC(=O)CNS(=O)(=O)/C=C/c2ccccc2)cc1 | inactive: -1.79% | –
CC(=O)c1c(C)[nH]c(C(=O)OCc2nnc(-c3ccc([N+](=O)[O-])cc3)o2)c1C | inactive: -6.41% | –
Cc1cc(C)cc(OCC(=O)NNC(=O)CN2C(=O)c3ccccc3C2=O)c1 | inactive: -7.05% | –
O=C(COc1cc(O)c2c(=O)cc(-c3ccccc3)oc2c1)c1ccccc1 | inactive: 8.58% | –
Cc1ccccc1C(=O)Nc1ccc(O)cc1C(=O)O | inactive: -15.6% | –
COc1cccc(NC(=O)Nc2ccccc2C(N)=O)c1 | inactive: -0.807% | –
CCS(=O)(=O)NCc1cn2c(C)csc2n1 | inactive: -2.96% | –
Cc1cccc(NC(=O)C2CCN(S(C)(=O)=O)CC2)c1C | inactive: -5.53% | –
COCCNC(=O)C(=O)NNC(=O)c1ccccc1OC | inactive: -5.77% | –
O=[N+]([O-])c1ccc(S(=O)(=O)N2CCN(Cc3ccco3)CC2)cc1 | inactive: -7.68% | –
CCOC(=O)N1CCN(C(=O)c2cc3ccc(OC)cc3[nH]2)CC1 | inactive: 8.04% | –

SMILES | growth rescue (activation) | Potency
COC(=O)c1ccc(OCCN2CCCCCC2)cc1 | inactive: -6.18% | –
Cc1cc(C)c(C)c(C(=O)C2OC(=O)C(C)(C)C(=O)C2(C)C)c1C (stereo unspecified) | inactive: 22.8% | –
COC(CNC(=O)c1cc(Sc2nnc(C)s2)nc2ccccc12)OC | inactive: -1.71% | –
COC(=O)CSc1nc(C)c(C(=O)Nc2ccccc2C)c(-c2ccc(Cl)cc2)c1C#N | inactive: 13.4% | –
O=c1c2ccccc2ncn1-c1ccc([N+](=O)[O-])cc1[N+](=O)[O-] | inactive: -4.29% | –
COc1ccc(CNC(=O)C2CCN(S(=O)(=O)c3cccc4nonc34)CC2)cc1 | inactive: 1.81% | –
O=C(COC(=O)c1cc2ccccc2oc1=O)Nc1cccc(S(=O)(=O)N2CCCCCC2)c1 | inactive: -9.32% | –
Cc1c(Cl)cccc1NC(=S)N1CCCN(Cc2ccc(F)cc2)C1 | inactive: 8.94% | –
O=C(Cn1cc[n+](Cc2ccccc2)c1)c1ccc([N+](=O)[O-])cc1 | inactive: 0.209% | –
O=C(NCC(=O)N(Cc1ccc(F)cc1)C(C(=O)NCC1CCCO1)c1ccccc1)c1ccco1 (stereo unspecified) | inactive: -6.15% | –
CCC1(C)Cc2c(sc3c2c(=O)n(C)c2nnc(SCCc4ccccc4)n32)CO1 (stereo unspecified) | inactive: -37.3% | –
CCN1CCN(S(=O)(=O)c2ccc(OC)c(NC(=O)c3ccccc3)c2)CC1 | inactive: -2.53% | –
O=C(c1cc(-c2ccccn2)nc2ccccc12)N1CCN(c2ncccn2)CC1 | inactive: -7.88% | –
CN(CC(=O)Nc1ccc(S(N)(=O)=O)cc1)Cc1ccccc1F | inactive: 6.82% | –
Cc1[nH]nc(SCC(=O)N2CCCCCC2)c1[N+](=O)[O-] | inactive: -3.11% | –
C=CCN(c1ccc(C(=O)Nc2ccc3c(c2)OCO3)cc1)S(C)(=O)=O | inactive: 4.94% | –
OC(CNCc1ccccc1Cl)COc1ccc(F)cc1 (stereo unspecified) | inactive: 4.16% | –
COC(=O)c1c(N)sc(C(=O)NCCc2ccccc2)c1C | inactive: 3.61% | –
Cc1ccc(C(=O)N2CCCCC2C(=O)O)cc1S(=O)(=O)N1CCCCC1 (stereo unspecified) | inactive: 2.68% | –
Cc1cccc(N2CCN(Cc3nc(-c4ccc(F)cc4F)oc3C)CC2)n1 | inactive: 1.35% | –
COc1ccc(CCCNC(=O)C2(C)Cc3c(-c4ccc(NC(C)=O)cc4)ccnc3O2)cc1 (stereo unspecified) | inactive: -4.34% | –
CCOC(=O)Nc1ccc2c(COC(=O)CNS(=O)(=O)c3ccc(NC(C)=O)cc3)cc(=O)oc2c1 | inactive: -2.26% | –

SMILES | growth rescue (activation) | Potency
Oc1ccc(/C=N/N2CCCCC2)c(O)c1O | inactive: 3% | –
COc1ccccc1N1CCN(C(=O)CSc2nnnn2C2CC2)CC1 | inactive: 6.31% | –
CCOc1ncccc1C(=O)Nc1cc(S(=O)(=O)N2CCCCC2)ccc1OC | inactive: 14.4% | –
COc1ccc(NC(=O)CN(C)C(=O)c2ccc3ccccc3c2)cc1 | inactive: 6.12% | –
O=C(NCc1cccc(F)c1)C1CCN(C(=O)c2sccc2-n2cccc2)CC1 | inactive: -1.76% | –
COc1ccc(/C=C(\C#N)C(=O)OCC(=O)Nc2c(C)cccc2C)cc1 | inactive: 18.8% | –
CC(C)COC(=O)/C(C#N)=C/c1cn(Cc2ccccc2)c2ccccc12 | inactive: -15.2% | –
CC1(C)C(=O)OC(c2cccn2-c2ccc([N+](=O)[O-])cc2)C2(CCCCC2)C1=O (stereo unspecified) | inactive: 8.62% | –
COc1cc(SC)ccc1C(=O)NNC(=O)C1COc2ccccc2O1 (stereo unspecified) | inactive: -3.13% | –
COc1ccc(CNc2nc(-c3cccnc3)nn2S(C)(=O)=O)cc1 | inactive: 8.65% | –
O=C(O)c1ccccc1SCc1cn2cc(Br)ccc2n1 | inactive: -23.1% | –
CN1/C(=C\C(=O)c2ccccc2Cl)c2ccccc2CC1(C)C | inactive: -5.99% | –
COc1ccccc1C(=O)Nc1cc2c(cc1C(=O)O)OCCCO2 | inactive: 3.83% | –
Cc1cccc(C)c1NC(=O)CNC(=O)Cc1ccc(Br)cc1 | inactive: 9.74% | –
COc1ccc(OC)c(N(CC(=O)N2CCCC2)S(=O)(=O)c2ccccc2)c1 | inactive: 10.2% | –
Cc1cc(=O)[nH]c(SCC(=O)Nc2ccccc2C)n1 | inactive: -2.54% | –
O=C(CC1SC(=Nc2ccc(OC(F)F)cc2)N(CCN2CCOCC2)C1=O)Nc1ccc(F)cc1F (stereo unspecified) | inactive: 5.37% | –
CCC(=O)N1CCCC1(C)C(=O)Nc1ccc(C)c(C)c1 (stereo unspecified) | inactive: 2.93% | –
